# In PubChem BioAssay AID624296 (National Center for Advancing Translational Sciences (NCATS), 2012):
# Out of some 350,000 compounds screened, about 9,900 (2.8%) were called active. Inconclusive results, whose numbers are uncertain, are shown with a selection of clear calls. Calls come from the whole dose curve; as a rule, active = well fitted activation curve with a large enough effect; inconclusive = small, poorly fitted or top-dose-only effect; inactive = no such curve, though single readings can be large or run the other way. No potency is given beside an inconclusive call; the fits are too rough.
# Experiment: A quantitative high throughput screen for small molecules that induce DNA re-replication in MCF 10a normal breast cells. Note: nearly all actives have a fitted effect of over 50% in size.
# Settings: MCF 10A DNA re-replication, Hoechst nuclear intensity, 48 h; series mostly up to 46.1 µM
# Potency is the fitted concentration of half-maximal effect; tags give direction and shape of the fitted curve.
row,SMILES,Potency
1,COc1ccc2c(c1)Sc1ccccc1N2,"inconclusive [activator, single point]"
2,CC1=CCC(Cc2nc3ccccc3o2)C1(C)C (stereo not given),inactive
3,O=C1CCc2cc(S(=O)(=O)NCc3ccccc3Cl)cc3c2N1CC3,inactive
4,Cc1csc(N)n1,"inconclusive [activator, full curve, poor fit]"
5,COc1ccc(Nc2cc(C)nc3ncnn23)cc1,"inconclusive [activator, partial curve, poor fit]"
6,CC(C)(C)C(=O)NCCc1nc2ccccc2n1CC(=O)c1ccccc1,inactive
7,CC1CCN(S(=O)(=O)c2ccc3c(c2)oc(=O)n3CC(=O)N2c3ccccc3CC2C)CC1 (stereo not given),inactive
8,O=C(CCn1ccc2cc(S(=O)(=O)N3CCCC3)ccc21)NCc1ccccc1F,"inconclusive [activator, partial curve, poor fit]"
9,CN(Cc1cccc2cnccc12)C(=O)c1cc(COc2ccc(F)cc2Cl)on1,inactive
10,Cc1ccc2nc(N(CCN3CCOCC3)C(=O)CCS(=O)(=O)c3ccccc3)sc2c1,"inconclusive [activator, single point]"
11,CN(C)CCNc1nc2sc3c(c2c(=O)n1-c1ccc(F)cc1)CCCCC3,"inconclusive [activator, partial curve, poor fit]"
12,CCCSCCCNC(=O)Cn1c(=O)c2cccn2c2ccccc21,inactive
13,CCc1ccc(C(=O)C(C)OC(=O)Cc2n[nH]c(=O)c3ccccc23)cc1 (stereo not given),active: 14.6 µM
14,Cc1cc(C)c2c(N)c(C(=O)Nc3ccc(C)c(C)c3)sc2n1,"inconclusive [activator, single point]"
15,Cc1cccc2cc(CN(CC3CCCO3)C(=O)NC3CCCCC3)c(=O)[nH]c12 (stereo not given),inactive
16,CC(C)(c1ccccc1)c1ccc(OCCN)cc1,"inconclusive [activator, partial curve, poor fit]"
17,COc1ccccc1CN(Cc1cc2cc(C)ccc2[nH]c1=O)Cc1nnnn1CC1CCCO1 (stereo not given),"inconclusive [activator, single point]"
18,Cc1nc(-c2ccccc2)sc1C(=O)/C=C/c1ccccc1,"inconclusive [activator, full curve]"
19,COc1ccc2c(c1)CC/C(=C\c1ccc(OC)c(Cn3cccn3)c1)C2=O,"inconclusive [activator, single point]"
20,Cc1cccc(CSc2cccc3cccnc23)c1,"inconclusive [activator, single point]"
